# The source gives no read counts; variants with many changes may rest on few reads.
# B1: CPEB3 Ribozyme (parent)
# chain: UAACAGGGGGCCACAGCAGAAGCGUUCACGUCGCAGCCCCUGUCAGAUUCUGGUGAAUCUGCGAAUUCUGCUGUAUAUCUC
# Variants of: B1
# Experiment: self-cleavage, relative activity (ratio to wild type); higher = more cleavage; in vitro, sequencing
# Method in brief: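 Relative activity was defined as the cleaved/total read fraction for a variant divided by the same fraction for the unmutated ribozyme. CPEB3 self-cleaving ribozyme libraries were made by rounds of error-prone PCR, barcoded, and transcribed in vitro with T7 RNA polymerase for 5 hours at 37°C, and cleavage ran through transcription plus a 15 min DNase I step before EDTA. Illumina sequencing of template-switched reverse transcripts gave the reads, and DNA sequencing mapped the barcodes. Averages come from three batches, using variants with at least 5 reads.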
row,Variant,self-cleavage
1,C38U A56G U66C,0.05
2,C38U A57G A65G,0.08
3,C38U G53A A65G U74A,0.29
4,C38U G73A U80G,1.32
5,C38U U41C A45C A57G,0.13
6,C38U U41C A45U U48C A56G U60A,0.22
7,C38U U41C A57U,0.49
8,C38U U43C U51C,0.22
9,C38U U48C U49C U69A,0.33
10,C38U U48C U66C,0.12
11,C38U U48G A56G,0.12
12,C38U U49C U67A,0.08
13,C38U U49C U69C,0.11
14,C38U U49C U72C,0.21
15,C38U U54C U72C,1.03
16,C38U U60A U72C,0.25
17,C39A C40U A45U A75G,0.1
18,C39A C40U U74C A77U,0.19
19,C39A C50U A57G U69A,0.13
20,C39A C59A U67G,0.14
21,C39A G55A U78C,0.3

row,Variant,self-cleavage
1,C39A U41A A56G,0.09
2,C39A U49C A57G,0.18
3,C39A U49C U54C,0.2
4,C39G U48A U74C,0.23
5,C39G U54A A57G U78C,0.09
6,C39G U58A U80C,0.44
7,C39U A56G U72G,0.4
8,C39U U41C G46U U76C U78C,0.24
9,C39U U43C A47G A57G U80C,0.4
10,C39U U43C U67C U69A,0.22
11,C39U U60C A65G,0.19
12,C39U U67C C71A,0.19
13,C40A A45G U49C U60C A64G U69A G70C,0.06
14,C40A A45U C81A,0.2
15,C40A C44A U67A A75U,0.13
16,C40A U41A U49C,0.13
17,C40A U41C A45U,0.17
18,C40A U41C A56G U66C,0.06
19,C40A U43C A45U U51C U60C A75G,0.07
20,C40A U43C U72A U76C,0.14
21,C40A U48C U51C,0.32

row,Variant,self-cleavage
1,C40A U54A A57G,0.08
2,C40A U54C A64U G73U,0.2
3,C40A U58A A75G,0.29
4,C40G A47G U51A U60C,0
5,C40G A57U C62U,0.09
6,C40G U54C U67C,0
7,C40G U72C U80A,0.05
8,C40U A45U U51A U54C A64G,0.16
9,C40U A47G A65G,0.08
10,C40U A47G U48C U58A,0.12
11,C40U A56G C59G,0.06
12,C40U A56U G63U,0.63
13,C40U A56U U72A,0.18
14,C40U A57G A64G,0.29
15,C40U A57G G63A,0.49
16,C40U A64U U72C,0.11
17,C40U A65G C81U,0.09
18,C40U C44A A47G,0.14
19,C40U G42A A45G,0.3
20,C40U G53C C62U U72C,0.38
21,C40U U41C A64G,0.9

row,Variant,self-cleavage
1,C40U U48G U49A U72C,0.12
2,C40U U51A U69C,0.37
3,C40U U69A U78A,0.41
4,U41A A45G A56G,0.33
5,U41A A45G U58A,0.12
6,U41A A45G U60A,0.35
7,U41A A45G U67C,0.31
8,U41A A45U A75U,0.1
9,U41A A45U U54A,0.15
10,U41A A45U U76C,0.1
11,U41A A47G A65G,0.18
12,U41A A47G U49C A57G U67A U78C,0.07
13,U41A A56G A64G U74A U80G,0.05
14,U41A A56G U67A,0.11
15,U41A A56G U67C U78C,0.07
16,U41A A56U U58A U72G U74C U78C,0.12
17,U41A A57G U66C U74C,0.18
18,U41A C59A A64G U69A A75U,0.13
19,U41A C59A A65G U69C,0.09
20,U41A G42A A56U U60A,0.13

# Source: the RNAGym collection of RNA variant scans (doi:10.1093/nar/gkz1192)
